# The supplement of paper PMC10126150
# Sequences with one replicate were seen in a single cluster, so their values are uncertain.
# Test system: ATP
# Test: switch fluorescence ratio, 500 uM ATP over buffer (Cy3 cluster intensity, sum of 5 cycles each) (fold (ratio)); higher = stronger signal-on switching upon ATP binding; sequences stand for … in TCGTCGGCAGCGTCAGATGTGTATAAGAGACAGTTTTTTTTTTTTTTTTTTTTTTTTT…TC
# Conditions: aptamer strand: ATP DNA aptamer (quencher-CACCTGGGGGAGTATTGCGGAGGAAGG + anchor), 100 nM annealed; ATP concentration: 500 uM; one replicate
# Procedure, shortened: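 For every switch-domain sequence, the fluorescence ratio is the mean of per-cluster values, each being summed target-cycle Cy3 intensity over summed buffer-cycle Cy3 intensity. Clusters outside 100-1000 RFU were excluded. On a modified Illumina MiSeq flow-cell, the Cy3-labelled switching-strand clusters were annealed to 100 nM quencher-labelled ATP aptamer, imaged in selection buffer and then after 15 min with 500 uM ATP at 22 °C. Five such cycles were run, with NaOH stripping and re-annealing between them.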
# 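Also: ATP exposure 15 min at 22 °C before imaging.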
row,Sequence,switch fluorescence ratio
1,CTCGAACAGT,1.04
2,CGCTGATATT,1.08
3,CCATTTGCTT,1.02
4,ACCCTATGA,1.09
5,TGACCAGAGC,1.07
6,AATTATTACC,1.05
7,GGAAAGTGAA,0.944
8,TGCACGGGGC,1.08
9,GATGGGTGGA,0.947
10,ACATACGGT,1.29
11,GAAAAGTCAG,1.06
12,TCATCAATC,1.1
13,AATTGAACAT,1.02
14,ACATATAAGA,1.08
15,AGGGGACCTC,1.03
16,GTAACACCCT,1.21
17,AAGGCTAGCG,1
18,TTTACACCAT,1.05
19,AGGACAGACG,1.06
20,GATATTTAAT,0.993
21,TTTGTGTACA,1.01
22,AACACATAGA,1.04

row,Sequence,switch fluorescence ratio
1,GTCTATTTTT,1.09
2,TTTGACGCTT,1.11
3,GCGTCCTGCA,0.995
4,GTTGGTTGAA,1.02
5,CTAAATCTGG,0.987
6,TTACCAAGTA,1.1
7,TCGGAAAAA,1
8,TCTTTAAGCG,1.02
9,CTCGGATAGA,0.988
10,CTAAGCACCA,1.22
11,CGTTCGCGGT,1.46
12,GCCGATAGTC,1.05
13,TACGGCCATT,1.02
14,TAAGTGCCCG,0.959
15,GCGACTGG,1.08
16,TAGTCGGTTG,1.04
17,AATGCAAGAT,1.09
18,ATTGGGAATT,1.02
19,TTGACCAAAG,1.01
20,TAGTACGGGG,0.971
21,TCCCGTGTGC,1.27
22,TTTCCAAGAC,1.7

row,Sequence,switch fluorescence ratio
1,TACATTTGAG,0.999
2,AGGGCGCCA,1.01
3,TATTTCAGA,1.04
4,GTCAGCACTC,1.41
5,CATAATATAA,1.04
6,AAGTCAATGG,1.24
7,GACTACGACA,1.19
8,CTCTTCCTGG,1.28
9,TCCTGTATCA,1.05
10,CGGACGGTGT,1.03
11,CGTTCGACCG,1.01
12,GTACAATTTT,1
13,TAGTAAGAGT,1.02
14,TCACAATGCA,0.998
15,CGGTAACTTT,1.02
16,TTTTTTTA,0.976
17,GCGTCCTTTA,1.01
18,ACCACTTTAG,0.941
19,TTGACCGTA,0.984
20,TGCTAAAACC,0.978
21,GGATCGGGTT,0.997
22,GGGTTCTACA,1.02

row,Sequence,switch fluorescence ratio
1,GCAAGGACTA,1.1
2,ATGAAATTAA,1
3,CCAACACATG,1.04
4,CACGGTCGTT,1.03
5,TCGTCGCTG,1.02
6,CTAGTTCCCG,0.943
7,CGGAAGCAGG,1.16
8,ACCCGACAAG,1.24
9,GCTGTGAACG,1
10,GGTCGGACAA,0.986
11,AATGGCAAGT,0.974
12,GGGGTCGTAG,0.975
13,CTCCATTCTC,1.21
14,GTGAGTGAGT,0.992
15,AGAGGGATTT,0.992
16,TGTTGCCATG,1
17,TAAAAATAAG,1.03
18,ACCCTTTTGG,0.987
19,AGGTCGAGAG,1
